The target in one series is FLT3 (Homo sapiens, UniProt P36888). The experiment in a line: in vitro pharmacology assay, kinase inhibition. In kind it is biochemical.
Series [1] deals with cells expressing several less common FLT3-TKD mutations (I836, other D835 and other mutations). The note with it: I836, other D835 and other mutations reported in AML; cited from earlier work.
Series [2] has as its system patients with R/R AML who received 120 mg gilteritinib, regardless of FLT3 status. The experiment in a line: primary.
The next series has as its target ROS (Homo sapiens, UniProt P08922). In words: in vitro pharmacology assay, kinase inhibition. The format is biochemical. The note with it: at 5 nM.
For another series, the target named is RET (Homo sapiens, UniProt P07949). The experiment in a line: in vitro pharmacology assay, kinase inhibition. In kind it is biochemical. The note with it: at 5 nM.
The next series concerns the target MER (Homo sapiens, UniProt Q12866). In words: in vitro pharmacology assay, kinase inhibition. The format is biochemical. The note with it: at 5 nM.
A short description of series [3]: clinical pharmacokinetics after oral gilteritinib tablet. The format is in vivo, human.
The target of a further series is AXL tyrosine kinase (Homo sapiens, UniProt P30530). The experiment in a line: in vitro pharmacology assay, kinase inhibition. The format is biochemical.
Series [4] addresses anaplastic lymphoma kinase (ALK) (Homo sapiens, UniProt Q9UM73). In words: in vitro pharmacology assay, kinase inhibition. In kind it is biochemical.

One may read the inhibition as the relative decrease from the control value, in per cent. The low end stands for little suppression, the high end for strong suppression. The Tmax is the time at which the peak concentration occurs.

Take `CCc1nc(C(N)=O)c(Nc2ccc(N3CCC(N4CCN(C)CC4)CC3)c(OC)c2)nc1NC1CCOCC1` [gilteritinib]: the inhibition at 0.001 µM (against FLT3; on AXL tyrosine kinase; in [4]) was more than 50% in each case. For the same molecule, in series [1], the “inhibitory effect compared with cells expressing the FLT3-ITD mutation” value was “equivalent inhibitory effect”. This molecule also displayed a DS cases fatal in series [2] (1 of 11) of 9%. Besides, the “deaths potentially resulting from direct toxicity” value in series [2] (five deaths) is recorded as 2%. Also, in series [2] (including one fatal event), the pancreatitis is on record as 4%. The inhibition entry against ROS, against RET and at MER was “greater than half maximal inhibition” throughout. Besides, the dose proportionality result in [3] (doses 20 to 450 mg once daily) is given as “dose-proportional pharmacokinetics”. Besides, the “effect of a high fat meal on absorption” value in series [3] (human, in vivo) was “no clinically significant impact”. Also, in [3] (human, plasma, po), the Tmax is 4 to 6 h. Also, in series [3] (once daily dosing), the “time to steady-state concentrations” value was not above 15 days. For the same molecule, the “accumulation index (Rac)” value in series [3] (once daily dosing, range) was 3.23 – 9.64. In [3] (once daily, 20 to 450 mg), the “estimated half-life (T1/2)” value was 113 h.

These data come from article PMC8506653 (Clinical cancer research : an official journal of the …, 2021).
